# Experimental data from PubChem BioAssay AID686978 (National Center for Advancing Translational Sciences (NCATS), 2013).
# The campaign covered roughly 420,000 compounds. About 64,000 (15%) were called active. The shares of active, inactive and inconclusive entries below differ from those in the screen. Calls follow the shape of the dose curve; as a rule, active = well fitted inhibition curve with a large enough effect; inconclusive = small, poorly fitted or top-dose-only effect; inactive = flat fitted curve, though single readings scatter. Potencies of inconclusive entries are left out as doubtful fits.
# Assay: qHTS for Inhibitors of human tyrosyl-DNA phosphodiesterase 1 (TDP1): qHTS in cells in absence of CPT; also: nearly all actives have a fitted effect of over 55% in size
# Details: DT40 Tdp1-/- hTDP1 cells, no CPT, ATP luminescence, 48 h; series mostly up to 46.2 µM
# Method in brief: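 Compound effects on proliferation are scored in DT40 Tdp1-/-;hTDP1 cells in the absence of CPT. ATP levels (CellTiter-Glo luminescence) are recorded after a ≥48 hr, 37 °C incubation.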
# Potency is read from the fitted curve at half-maximal effect; tags tell the direction and shape of the fitted curve.
row,Compound,Potency
1,Cc1ccc(C(C)NC(=O)c2c(-c3ccccc3)noc2C)cc1C (centres undefined),"inconclusive [inhibitor, single point]"
2,O=[N+]([O-])c1ccc(NC(=S)N2CCN(c3ccccn3)CC2)cc1,active: 11.6 µM
3,COc1ccccc1CCNC(=O)c1c(C)nn(CC(C)C)c1Cl,"inconclusive [inhibitor, single point]"
4,O=C1NN(c2ccccc2)C(=O)C1=Cc1ccccc1O,inactive
5,Cc1cccc(Nc2nc(-c3sc(C)nc3C)cs2)c1,active: 16.4 µM
6,O=c1[nH]c2ccc(S(=O)(=O)N3CCCCC3)cc2[nH]c1=O,"inconclusive [inhibitor, single point]"
7,CCCc1nnc(SCC(=O)NC2CC2)n1CC,"inconclusive [inhibitor, single point]"
8,CC(C)NC(=O)N(C)C[C@@H]1Oc2ccc(NC(=O)Nc3ccc(C(F)(F)F)cc3)cc2CC(=O)N([C@H](C)CO)C[C@@H]1C,"inconclusive [inhibitor, single point]"
9,CNc1ncc(-c2nnnn2-c2ccccc2)c(-c2ccccc2)n1,"inconclusive [inhibitor, single point]"
10,Cc1ccc(Cl)cc1Nc1sc(C(=O)c2ccc(F)cc2)c(N)c1S(C)(=O)=O,"inconclusive [inhibitor, single point]"
11,COc1cccc(CNC(=O)Cc2csc3nc(-c4ccccc4)cn23)c1,"inconclusive [inhibitor, single point]"
12,COc1cc(CC2COC(=O)C2(O)Cc2ccc(O)c(OC)c2)ccc1O (centres undefined),active: 9.2 µM
13,COc1ccc(C(=O)/C=C/Nc2ccc(S(=O)(=O)Nc3cc(OC)nc(OC)n3)cc2)c(OC)c1,"inconclusive [inhibitor, single point]"
14,COc1cc(SC)ccc1C(=O)N(Cc1ccccc1)c1ccccc1,"inconclusive [inhibitor, single point]"
15,CCOc1ccc(-n2c(SCC(=O)O)nc3sc4c(c3c2=O)CCCC4)cc1,inactive
16,COc1ccc(CN2CCN(C(C)C)C(CCO)C2)cc1Cn1cccn1 (centres undefined),inactive
17,CCOC(=O)C1=C(C)NC(SC)=NC1c1ccccc1 (centres undefined),inactive
18,Cc1cc(C)cc(N(CCC#N)C(=O)CSc2nc3ccccc3c(=O)[nH]2)c1,"inconclusive [inhibitor, single point]"
19,Cc1cccc2c(N3CCCC3)nc(CNS(=O)(=O)c3ccccc3F)nc12,"inconclusive [inhibitor, single point]"
